Results reported in the supplement of paper PMC12632987.
Over roughly 2,300 sequences, “median log2 fold change of GCK-ALFA target abundance (FLAG IP / Myc IP barcode read proportion)” has its median near 0.095; the lowest 2% begin near -0.47. The list shows a part of the results.

B1: LC3A_147_434 (protein)
chain: YKVKVYIDILSKNAEEEILKAVKELVEELKKKGYKVKLKVEVEKLEDGTTYIRIEIEVEAKTEEEAQEAADYIIDKFDEIEEELKDKILGSIISVEIIEE
B2: LC3A_23_613 (protein)
chain: MYRVTVEADFIAEPEEARAKAEALRAAIEELLEKNRDIVEESRIEVEFEELPDGRTFLTVRVTVVVRGTREEAEALRNELVSIVDEVLPDAVISSEVEEL
B3: LC3A_28_1176 (protein)
chain: SALDESIAKALAEAKEAAAAKEPAAVTLTVPGTTTPEETDRAIATIEEIAKLLKGVKGSAIIVDVEAGVSQENLNRLMDAGERVEKEYPDVSVIFALDED
B4: LC3A_3_1517 (protein)
chain: MEELIEETLKELEEAGKSEEVIEAVRRALEALKERGYEEALETFAELMKELLDASDEILLWFAEEALRLVEEEDLDEEELIEELKRLASVAKSESEIIEL
B5: LC3A_45_1985 (protein)
chain: MWRATVDILVPREDGEAALAAIKAAMEELQARYGPELEFNTELLDASYEATKDEPEVYLEVEITAPDEQTALDAADELVDRLEAALGRPVAAMISTEEVP
B6: LC3A_28_779 (protein)
chain: NELKKNVEAALKKAKEAAEKGEEVTLTITIPKDATKEDIEYVAEALEEIAKLSEKMKRVDIVIDIEAGVKEEYIKYLSEKGDELSKKNPKVTVVFALEEE
B7: LC3A_147_481 (protein)
chain: MEVDIDVLVKNQAAADAFIAHVQAAAAELRAEGVEVDVDITREQLDPNTWYIEVRLRLRAPTAEAERAAAQRFVDSIDAFIEEHKDEILAALISVTEVEP
B8: LC3A_147_484 (protein)
chain: MRVYVDVLVDDEETAEELVRLMEATVEELRAQGIRVELRVEIEEVEPGVYFVEIEVEIEAETEEEEQAAAQRVIDALEAFDEANKDRVLGTLISVEREER
B9: LC3A_free_39_2215 (protein)
chain: SEAEIDALIRRIAEEGGVDYEYVKEKLLEIQKVGGLTPEQMLEIARAILEAVEAGADAREILEEILALTKELVAQGKTPEQIAEEILERIRDFRNLIPLD
B10: LC3A_28_749 (protein)
chain: SAIEKQLEEVIKKAKEAAKKGEPIVLTITVPGDADEEDIERVIKAMEEIAEILKDVKDQTIIVDIDGNLPEEYQNRLIDKAEEIEEKYPNVTVIIALDEE
B11: LC3A_free_39_2231 (protein)
chain: MEEEIEKVIKEIAEEAGIDYEYLREKMEEIKEVGGLSNEEMLEILKELLKAVKAGADAREILDEMLKITKELKAQGKSPEEILEAILEEIRDYRNLIPLD
B12: LC3A_28_676 (protein)
chain: SELEENLKKALEEAKEAAKAGEPVVITINIPGDATEEEVKKFIEKLEEIAKILKDVKGAAIVVNLSKDLKQEHRDKIIDKAEEINEKYPNVTVIIALEEE
B13: LC3A_3_1469 (protein)
chain: MHPLIKEAREALKKRGVSEETIEKIVKYLEKLAKYGVLEVAVETLKEALKNPNATEEKLLEIAEELLKLVEEEKISKEEAKEEGKVLLLELVEIEEIDEE
B14: LC3A_3_1754 (protein)
chain: MEERLKEIRERLEALGFSPEVIEAALEVAKLLLERGFEEAVEVLLEELAELKDLPDEIILDMLEDIKREIEEKDLNEEEVIEVIKEEARVARSESEIIEL
B15: LC3A_3_1761 (protein)
chain: MEEFIEKAEKELKELGADEELIKKAKEALKLLLERGLEETAEKFKEALKELLKKSKELAKQLAEDVLNLLKTSTLSPEELAKEVNSEINAALSESEIEEL
B16: LC3A_3_1858 (protein)
chain: MEEIKEEILELLRELGRSEETIKAAEELAEALIERGYEEALKTLLEELKELENASDELLLEMFKELLRLLKEENLNEEELIEAIKEEARIVKNEEEIIEL
B17: LC3A_3_1857 (protein)
chain: MEEIKKEILELLKKLGRSEETIKAAEELADALIKRGYKKALEKLLEELKKLKNASDELLLDMFKELLAALENEKLNEEELIKKIEEEAKIVKNEQEIIEL
B18: LC3A_74_2071 (protein)
chain: ALSVEEVDRLEELAARLLALIILSEEKGWFSPEEVAEARELRDQLLAVLRQQGALTEAVEGGIELEAELLALRLEEDPEAAKELLKETREEARALLARVS
B19: LC3A_127_207 (protein)
chain: EERKLLEEAERLAEEAIEALDKIPEEGEEARERAIRLLKELAELLKKVPSLKEALKDTQQAIEQLEAMKDLSPAEREEAREQVSMILDGILIEVESELLK

The binders below were run against MAP1LC3A, Q9H492 (assay: median log2 fold change of GCK-ALFA target abundance (FLAG IP / Myc IP barcode read proportion) (log2 ratio); each designed protein is fused to an ALFA-tag nanobody in HEK293 cells to bring the named protein to FLAG-tagged glucokinase (GCK); Myc marks an untargeted standard; higher = target protein stabilised (more abundant)). Details: target protein: 3xFLAG-MCP-GCK-ALFA reporter; HEK293 landing pad (RPLP).
In short: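 The readout is target abundance, the per-binder median log2 ratio of FLAG to Myc barcode read proportions. It came from HEK293 landing-pad cells carrying a recombined ALFA-nanobody-fused binder library, induced with 2 μg mL^−1 doxycycline and transfected with a plasmid for a FLAG-tagged target and a Myc-tagged standard. After 48 h, lysates were immunoprecipitated with anti-FLAG and anti-Myc, and circular RNA barcodes were reverse transcribed, amplified and sequenced. Each barcode needed a proportion of at least 10^−7 in both replicates and each binder at least 3 barcodes per replicate, a pseudocount of 10^−6 was added, and the replicates were pooled.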

Binder | median log2 fold change
B1 | 0.121
B2 | -0.00193
B3 | -0.37
B4 | 0.126
B5 | 0.0325
B6 | 0.237
B7 | 0.0403
B8 | -0.559
B9 | 0.29
B10 | -0.139
B11 | 0.305
B12 | 0.243
B13 | 0.00392
B14 | 0.238
B15 | 0.226
B16 | 0.217
B17 | 0.117
B18 | -0.0671
B19 | 0.353
